Laboratory results: the supplement of paper PMC3724861
This is one part of the list.

test system: T1, Caupolican (Caup) homeodomain DNA-binding domain; assay: PBM E-score (8-mer, recovered from the published 9-mer minima) (E-score (dimensionless, -0.5 to 0.5)); Drosophila protein; higher = stronger relative binding preference, active = 0.31 or more
T1 sequence: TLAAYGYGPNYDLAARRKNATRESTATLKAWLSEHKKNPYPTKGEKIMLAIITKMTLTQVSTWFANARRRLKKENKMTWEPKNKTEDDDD
Summary of the method: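 An enrichment score, with higher meaning stronger, expresses relative binding preference for each short DNA word. The protein used was Caup's homeodomain DNA-binding domain (residues 214-303), produced by in vitro transcription and translation and tested at 100 nM on custom-designed protein binding microarrays. The 8-mer values were recovered from published 9-mer scores, each equal to the lower of its two constituent 8-mer scores.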

Sequence | PBM E-score
AAAAAAGA | inactive: -0.0444
ACGTGATA | inactive: 0.134
TCACCGAA | inactive: 0.0363
AATTAGCA | inactive: 0.138
CTACTCGA | inactive: 0.0537
AATAAACC | inactive: 0.0785
TCGCCAGA | inactive: -0.115
ATTAACGC | inactive: -0.015
ACATAAAC | inactive: 0.287
AGCGGACA | inactive: 0.0209
AAGTGTTA | inactive: 0.218
ACCGAAAG | inactive: -0.0307
AGACAGCA | inactive: -0.00319
CATACTCG | inactive: -0.0067
ACACGAGA | inactive: 0.216
CAGTCCAA | inactive: -0.0567
CGCCCGAC | inactive: -0.13
AAATGGTT | inactive: 0.101
AATATAAC | inactive: 0.176
ATGAAGTC | inactive: 0.0064
TAAGCATA | inactive: 0.0961

Sequence | PBM E-score
AATCCACG | inactive: -0.0597
GTAGGATA | inactive: 0.0559
ACGAGAAG | inactive: -0.0159
CTAGTACC | inactive: 0.201
ATGGCAGA | inactive: -0.0192
ATTGATCG | inactive: 0.0888
AAACTGCG | inactive: -0.101
ATGCGCGG | inactive: -0.101
GTTTGTTA | inactive: 0.225
AATCCTTC | inactive: -0.00179
CACACCAC | inactive: 0.0793
TACGTTCA | inactive: 0.06
CAACGTGA | inactive: 0.0867
ATGATGCG | inactive: 0.0059
CCCGAGTC | inactive: -0.126
CCGCGCCG | inactive: -0.199
GCGGAACC | inactive: -0.0906
ACGCTACA | inactive: 0.191
GGTCCGAA | inactive: -0.0849
ACACCAAC | inactive: 0.0942
TGTTGTAA | active: 0.377

Sequence | PBM E-score
AGACTAGA | inactive: 0.0325
TACATATA | active: 0.379
CCATCTTC | inactive: -0.0417
TCACAGGA | ≥ 0.124
AAAACTTA | inactive: 0.107
AGCCAAGG | inactive: -0.186
CCTTGCCC | inactive: -0.22
AATTTCAG | inactive: -0.0602
AATAACCG | inactive: -0.05
ATTTACAA | active: 0.361
TCCGTCAA | inactive: -0.00579
ATAACTTG | inactive: 0.197
GACGTGAA | inactive: -0.0186
GAAGCGGC | inactive: -0.179
AACTAGCC | inactive: 0.0343
AGGGGGGC | inactive: -0.385
ACGGCCCC | inactive: -0.253
ACAGCAAG | inactive: 0.148
CAGGAACA | inactive: 0.236
